For part of these data: Shown are results outside the selection of hits, which stands elsewhere. Records with an inconclusive call do not appear. This is a selection; strong and weak results do not stand in their true shares. More than one record can exist for a structure, and the calls need not agree. Calls of active or inactive are those of the source. The calls were made as follows, unless noted: active = hit-call score of the fitted dose curve at least 0.9, where 1 is the maximum; inactive = score below 0.9.

Test [1] has as its target Retinoic acid receptor alpha (Homo sapiens) (UniProt P10276). In words: ATG_RARa_TRANS: Attagene TRANS-FACTORIAL HepG2 Assay for human Retinoic Acid Receptor alpha (RARa) (AID 2283005; active = hit-call score of the fitted dose curve at least 0.9, where 1 is the maximum). A digest of the protocol:
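HepG2 cells transiently transfected with multiple reporter units expressing chimeric RARα-GAL4 fusion, with GAL4-UAS-driven reporters. After 24 h compound exposure, reporter mRNA induction quantified by RT-PCR and capillary electrophoresis with fluorescent labeling; gain-of-signal fitted relative to DMSO control.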

Test [2] deals with Retinoic acid receptor RXR-alpha (Homo sapiens) (UniProt P19793). Briefly: OT_NURR1_NURR1RXRa_0480: Odyssey Thera (OT) 8-hour HEK293T Protein Complementation Assay for Nurr1/retinoid X receptor (RXR) (AID 2283385; active = hit-call score of the fitted dose curve at least 0.9, where 1 is the maximum). The procedure, abridged:
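Interaction of Nurr1 with RXRα read as reconstituted reporter fluorescence in a HEK293T fragment-complementation system, 8 h post-treatment; increase over DMSO baseline analysed.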

Test [3] has the same target. In words: OT_NURR1_NURR1RXRa_1440: Odyssey Thera (OT) 24-hour HEK293T Protein Complementation Assay for Nurr1/retinoid X receptor (RXR) (AID 2283386; active = hit-call score of the fitted dose curve at least 0.9, where 1 is the maximum). The procedure, abridged:
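Gain in fluorescence, fitted relative to DMSO, reflects Nurr1–RXRα association in HEK293T cells after 24 h dosing. Bait and prey are each linked to a reporter-protein fragment that reassembles on interaction.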

Read-out in the next test: CYP2E1 (gene 1571)
Briefly: LTEA_HepaRG_CYP2E1: Life Technologies and Expression Analysis (LTEA) Assay for CYP2E1 using HepaRG (AID 2283485). The conditions noted are these: actives raise or lower the signal; mRNA level, 48 h. The procedure, abridged: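 CYP2E1 transcript measured by Fluidigm qRT-PCR against three housekeeping genes in human HepaRG cells treated 48 h (top 100 uM, half-log steps, 0.5% DMSO vehicle). Gain or loss fitted relative to DMSO baseline.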

The nature of test [4]: Tanguay_ZF_120hpf_CIRC_legacy: (Legacy) Oregon State University Tanguay Lab 120 Hour Post-fertilization zebrafish Assay for Circulatory Malformation (AID 2283651; active = hit-call score of the fitted dose curve at least 0.9, where 1 is the maximum). The procedure, abridged:
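Binary circulatory malformation call at 120 hpf by brightfield imaging of zebrafish larvae; chorion removed at 4 hpf, static exposure from 6 hpf in sealed dark plates at 28C, final DMSO 0.64%; non-mortality endpoints skipped if embryo died.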

Read-out in test [5]: Intercellular Adhesion Molecule 1 (ICAM1), ICAM1 (gene 3383)
In words: BSK_3C_ICAM1: BioMAP Diversity Plus: 3C Assay for Intercellular Adhesion Molecule 1 (ICAM1) Biomarker Activity (AID 2283003). The conditions noted are these: actives raise or lower the signal; primary human endothelial cells (HUVEC). The procedure, abridged:
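ELISA readout of ICAM1 in human umbilical vein endothelial cells in the 3C system, taken 24 h post-dose. Gain or loss of signal versus DMSO was fitted in both directions, with SRB total-protein staining run in parallel.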

In test [6] the target is human Retinoic Acid Receptor gamma (RARg), RARG (gene 5916) (UniProt P13631). In words: ATG_RARg_TRANS: Attagene TRANS-FACTORIAL HepG2 Assay for human Retinoic Acid Receptor gamma (RARg) (AID 2283009; active = hit-call score of the fitted dose curve at least 0.9, where 1 is the maximum). The procedure, abridged: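 Transactivation of exogenous RARg-Gal4 fusion measured as reporter transcript induction after 24 h in transfected HepG2 cells. RNA reverse-transcribed, amplified, fluorescently labeled and resolved by capillary electrophoresis; increase relative to DMSO.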
Chain of human Retinoic Acid Receptor gamma (RARg), RARG (gene 5916) (P13631 whole entry, looked up, the tested form may be a part): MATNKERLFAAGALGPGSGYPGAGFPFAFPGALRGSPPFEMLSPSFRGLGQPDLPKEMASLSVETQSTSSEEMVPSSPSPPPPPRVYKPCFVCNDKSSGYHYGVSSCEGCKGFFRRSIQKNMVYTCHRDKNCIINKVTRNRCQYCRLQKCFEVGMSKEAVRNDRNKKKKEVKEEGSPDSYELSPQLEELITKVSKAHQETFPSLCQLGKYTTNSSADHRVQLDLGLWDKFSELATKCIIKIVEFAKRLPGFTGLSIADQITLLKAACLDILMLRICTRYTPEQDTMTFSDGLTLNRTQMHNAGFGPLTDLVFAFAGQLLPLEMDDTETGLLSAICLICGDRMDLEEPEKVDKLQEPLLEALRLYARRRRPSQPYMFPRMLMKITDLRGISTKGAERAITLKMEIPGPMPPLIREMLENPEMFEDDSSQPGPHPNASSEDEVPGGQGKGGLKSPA

In test [7] the target is Retinoic acid receptor RXR-alpha (Homo sapiens) (UniProt P19793). Briefly: ATG_RXRa_TRANS: Attagene TRANS-FACTORIAL HepG2 Assay for human Retinoid X Receptor alpha (RXRa) (AID 2283012; active = hit-call score of the fitted dose curve at least 0.9, where 1 is the maximum). The procedure, abridged:
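TRANS format reporting activity of exogenous RXRa-Gal4 chimera in transiently transfected HepG2, 24 h exposure. Reporter transcripts quantified by RT-PCR with capillary electrophoresis, with gain of signal scored relative to DMSO.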

Read-out in test [8]: Interleukin-8 (IL8), CXCL8 (gene 3576)
Briefly: BSK_hDFCGF_IL8: BioMAP Diversity Plus: hDFCGF Assay for Interleukin-8 (IL8) Biomarker Activity (AID 2283058). The conditions noted are these: actives raise or lower the signal; primary human foreskin fibroblasts. A digest of the protocol: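 ELISA read-out of IL-8 from primary human foreskin fibroblast cultures taken 24 h after dosing; values are bidirectional fits relative to DMSO vehicle.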

Read-out in test [9]: Interferon-gamma inducible Protein 10 (IP10), CXCL10 (gene 3627)
In words: BSK_KF3CT_IP10: BioMAP Diversity Plus: KF3CT Assay for Interferon-gamma inducible Protein 10 (IP10) Biomarker Activity (AID 2283068). The conditions noted are these: actives raise or lower the signal; primary human keratinocytes with fibroblasts. A digest of the protocol: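 Human keratinocyte plus foreskin fibroblast primary co-culture exposed to test chemical for 24 h; IP-10 measured by ELISA. Concentration-response fitted bidirectionally against DMSO control as baseline.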

Test [10] is described as follows: BSK_KF3CT_SRB: Viability Assessment in the BioMAP Diversity Plus: KF3CT Assay (AID 2283069).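 Also: read 24 h after compound addition.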 As to conditions: primary human keratinocytes with fibroblasts. The procedure, abridged: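 Overt cytotoxicity is assessed as total protein by sulforhodamine B staining in parallel human skin co-cultures at 24 h after dosing. DMSO serves as negative control and baseline.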

Read-out in test [11]: Macrophage colony-stimulating factor (MCSF), CSF1 (gene 1435)
Briefly: BSK_LPS_MCSF: BioMAP Diversity Plus: LPS Assay for Macrophage colony-stimulating factor (MCSF) Biomarker Activity (AID 2283083). As to conditions: actives raise or lower the signal; primary human HUVEC with PBMC. A digest of the protocol:
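HUVEC + PBMC co-culture (human primary), 24 h post-dose; M-CSF by ELISA; gain/loss of signal fitted bidirectionally vs DMSO baseline.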

Read-out in another test: CD69, CD69 (gene 969)
In words: BSK_SAg_CD69: BioMAP Diversity Plus: SAg Assay for CD69 Biomarker Activity (AID 2283089).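 Also: cell surface CD69 protein quantified by ELISA with fluorescence detection.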 As to conditions: actives raise or lower the signal; primary human HUVEC with PBMC. A digest of the protocol:
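ELISA, fluorescence read-out: CD69 on human umbilical vein endothelial cell + PBMC co-culture, 24 h post-dosing. Gain or loss of signal fitted bidirectionally against DMSO baseline.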

Test [12] can be described thus: BSK_SAg_SRB: Viability Assessment in the BioMAP Diversity Plus: SAg Assay (AID 2283096).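 Also: cells read one day after compound addition; hits may be either gain or loss of signal compared with DMSO.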 As to conditions: primary human HUVEC with PBMC. A digest of the protocol:
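This overt-cytotoxicity endpoint quantifies protein in human endothelial/PBMC co-cultures at 24 h using SRB absorbance (560 nm) after trichloroacetic acid fixation. Values reflect signal change from the DMSO negative control, fitted bidirectionally.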

For test [13], the target named is human Esterase Plasma (ES), BCHE (gene 590) (UniProt P06276). In words: NVS_ENZ_hES: NovaScreen (NVS) Enzymatic Assay for human Esterase Plasma (ES) (AID 2283157; active = hit-call score of the fitted dose curve at least 0.9, where 1 is the maximum). A digest of the protocol:
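Screening ran at 25 uM in duplicate, followed by singleton concentration series reaching 50 uM for actives. Human plasma protein, colorimetric detection, 0.25 h exposure, DMSO negative control.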

Chain of UniProt P19793 (P19793 whole entry, looked up, the tested form may be a part): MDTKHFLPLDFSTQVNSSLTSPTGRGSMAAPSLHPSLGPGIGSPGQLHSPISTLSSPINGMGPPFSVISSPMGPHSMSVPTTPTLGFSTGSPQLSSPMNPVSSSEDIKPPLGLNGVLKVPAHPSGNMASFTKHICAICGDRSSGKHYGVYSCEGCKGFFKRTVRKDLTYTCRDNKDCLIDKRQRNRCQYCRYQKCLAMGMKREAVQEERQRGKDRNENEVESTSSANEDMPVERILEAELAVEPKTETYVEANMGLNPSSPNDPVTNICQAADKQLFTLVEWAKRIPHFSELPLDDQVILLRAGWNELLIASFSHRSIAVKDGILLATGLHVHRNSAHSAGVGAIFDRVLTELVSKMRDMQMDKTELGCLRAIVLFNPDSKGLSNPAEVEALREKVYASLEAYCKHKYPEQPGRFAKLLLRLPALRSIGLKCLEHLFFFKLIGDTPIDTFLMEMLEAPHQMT
Chain of UniProt P10276 (P10276 whole entry, looked up, the tested form may be a part): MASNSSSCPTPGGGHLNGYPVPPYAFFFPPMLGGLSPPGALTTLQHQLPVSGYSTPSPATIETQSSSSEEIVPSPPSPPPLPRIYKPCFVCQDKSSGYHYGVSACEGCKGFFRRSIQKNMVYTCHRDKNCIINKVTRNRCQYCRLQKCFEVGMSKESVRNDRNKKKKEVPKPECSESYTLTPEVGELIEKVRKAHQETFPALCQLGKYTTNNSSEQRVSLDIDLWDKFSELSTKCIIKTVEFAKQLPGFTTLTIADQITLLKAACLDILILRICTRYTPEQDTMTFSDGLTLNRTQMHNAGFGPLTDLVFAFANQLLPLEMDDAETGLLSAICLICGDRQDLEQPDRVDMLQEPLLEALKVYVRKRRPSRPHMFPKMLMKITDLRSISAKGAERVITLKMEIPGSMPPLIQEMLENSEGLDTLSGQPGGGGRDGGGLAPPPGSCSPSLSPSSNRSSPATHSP
Chain of UniProt P06276 (P06276 whole entry, looked up): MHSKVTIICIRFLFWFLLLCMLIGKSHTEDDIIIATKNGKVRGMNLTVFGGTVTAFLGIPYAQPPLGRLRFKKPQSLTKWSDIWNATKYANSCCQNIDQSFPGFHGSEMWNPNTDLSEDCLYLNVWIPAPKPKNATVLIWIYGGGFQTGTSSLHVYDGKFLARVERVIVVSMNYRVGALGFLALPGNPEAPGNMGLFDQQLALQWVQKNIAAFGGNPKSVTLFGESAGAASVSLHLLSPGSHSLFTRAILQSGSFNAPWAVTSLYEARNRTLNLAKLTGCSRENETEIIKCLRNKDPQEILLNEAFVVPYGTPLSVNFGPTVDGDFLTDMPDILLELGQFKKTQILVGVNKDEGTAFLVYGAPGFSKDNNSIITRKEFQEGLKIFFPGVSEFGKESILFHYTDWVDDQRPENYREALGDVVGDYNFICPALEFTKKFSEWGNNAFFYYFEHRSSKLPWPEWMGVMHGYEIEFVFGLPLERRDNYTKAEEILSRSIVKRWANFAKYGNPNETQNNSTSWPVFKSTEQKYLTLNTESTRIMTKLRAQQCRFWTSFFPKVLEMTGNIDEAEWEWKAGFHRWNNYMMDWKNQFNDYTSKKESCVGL

As a reminder, the AC50 is the concentration giving half of the maximal activity seen. For the molecule `Cc1cc2c(cc1C(F)(F)F)N(C(=O)Nc1ccc(Oc3cccnc3C)nc1)CC2`, the molecule was classed as inactive in test [1] and in test [4]. The AC50 in test [2] is active: 29.3 µM; in test [3], active: 29.3 µM; with CYP2E1 (gene 1571), active: 12.1 µM.

Turning to `CCCCCCc1ccc(O)cc1O`, the AC50 in test [5] is active: 31.8 µM; in test [8], active: 31.1 µM; in test [9], active: 30.1 µM; in test [10] it was active: 36.5 µM; in test [11], active: 31.1 µM; in the test with CD69, CD69 (gene 969), active: 35.3 µM. Also, the half-maximal activity concentration (AC50) in test [12] was active: 30.5 µM. For the same molecule, the result in test [6], in test [7] and in test [13] was inactive.

These data come from PubChem BioAssay (EPA / NIEHS).
